Test results: the supplement of paper PMC7826260
The list shows a part of the results. One pool of 16,384 single-stranded DNAs met each Rep nickase domain in vitro (1 h at 37 °C, 3 µM enzyme); the outer parts of the 90-letter strands are left off. Uncut reads are compared with the no-enzyme pool on a log2 scale; strong cutting gives strongly negative numbers. There is no active / inactive call. Because reads are shares of a total, they shift together; values above 0 arise when much of the pool is cut.

Columns and labels:
Test in all cases: uncleaved DNA left, log2 of reads against the no-enzyme library (log2 ratio); higher = less cleavage (more negative = more Rep cleavage of the k-mer); sequences stand for … in CTCGTCCG…ACCGGAGA
[1] = tested on: T1, Rep nickase domain of Muscovy duck circovirus
T1 sequence (Rep 1-111, printed without the tag): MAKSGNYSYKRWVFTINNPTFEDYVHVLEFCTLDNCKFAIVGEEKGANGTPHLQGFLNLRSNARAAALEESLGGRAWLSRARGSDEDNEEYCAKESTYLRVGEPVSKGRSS
Description: (§1)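 A pool of 90-nt single-stranded DNAs with seven random bases just before the constant AC of the nick site (name = the seven bases) was cut by 3 µM recombinant His6-SUMO-tagged Rep nickase domain (300 nM DNA, 50 mM HEPES pH 8.0, 50 mM NaCl, 1 mM MnCl2, 1 h, 37 °C, three replicates). Uncut DNA was amplified and sequenced.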

[2] = tested on: T2, Rep nickase domain of banana bunchy top virus
T2 sequence (Rep 1-94, printed without the tag): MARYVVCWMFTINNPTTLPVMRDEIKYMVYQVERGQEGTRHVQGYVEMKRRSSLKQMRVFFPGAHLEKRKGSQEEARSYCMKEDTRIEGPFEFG
Description: as §1

[3] = tested on: T3, Rep nickase domain of cabbage leaf curl virus
T3 sequence (Rep 1-116, printed without the tag): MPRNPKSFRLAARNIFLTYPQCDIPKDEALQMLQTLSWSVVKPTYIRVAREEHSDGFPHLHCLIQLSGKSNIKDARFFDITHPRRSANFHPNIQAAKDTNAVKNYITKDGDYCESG
Description: as §1

[4] = tested on: T4, Rep nickase domain of chickpea chlorotic dwarf virus
T4 sequence (Rep 1-124, printed without the tag): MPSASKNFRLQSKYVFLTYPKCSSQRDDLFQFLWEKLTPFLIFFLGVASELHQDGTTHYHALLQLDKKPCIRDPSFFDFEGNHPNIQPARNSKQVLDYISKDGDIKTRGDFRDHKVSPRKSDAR
Description: as §1

[5] = tested on: T5, Rep nickase domain of faba bean necrotic yellows virus
T5 sequence (Rep 1-98, printed without the tag): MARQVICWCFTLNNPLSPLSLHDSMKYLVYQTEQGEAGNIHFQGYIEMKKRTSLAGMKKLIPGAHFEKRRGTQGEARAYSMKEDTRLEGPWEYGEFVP
Description: as §1

[6] = tested on: T6, Rep nickase domain of maize striate mosaic virus
T6 sequence (Rep 1-117, printed without the tag): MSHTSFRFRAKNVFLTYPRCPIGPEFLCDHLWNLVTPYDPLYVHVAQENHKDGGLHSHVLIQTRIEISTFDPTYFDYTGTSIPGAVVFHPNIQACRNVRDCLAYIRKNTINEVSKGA
Description: as §1

[7] = tested on: T7, Rep nickase domain of porcine circovirus 2
T7 sequence (Rep 2-116, printed without the tag): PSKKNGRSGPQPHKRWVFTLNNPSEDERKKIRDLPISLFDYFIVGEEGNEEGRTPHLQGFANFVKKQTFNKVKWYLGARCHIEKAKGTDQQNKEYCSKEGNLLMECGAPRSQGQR
Description: as §1

[8] = tested on: T8, Rep nickase domain of tomato golden mosaic virus
T8 sequence (Rep 1-124, printed without the tag): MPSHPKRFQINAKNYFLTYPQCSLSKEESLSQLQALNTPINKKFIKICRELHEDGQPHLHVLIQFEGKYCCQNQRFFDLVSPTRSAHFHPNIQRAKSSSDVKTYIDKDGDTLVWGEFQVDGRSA
Description: as §1

[9] = tested on: T9, Rep nickase domain of tomato yellow leaf curl virus
T9 sequence (Rep 1-136, printed without the tag): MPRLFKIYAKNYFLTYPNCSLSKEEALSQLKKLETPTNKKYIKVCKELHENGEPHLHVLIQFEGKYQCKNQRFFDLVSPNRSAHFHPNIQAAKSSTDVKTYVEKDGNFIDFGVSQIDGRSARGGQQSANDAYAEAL
Description: as §1

[10] = tested on: T10, Rep nickase domain of wheat dwarf virus
T10 sequence (Rep 1-137, printed without the tag): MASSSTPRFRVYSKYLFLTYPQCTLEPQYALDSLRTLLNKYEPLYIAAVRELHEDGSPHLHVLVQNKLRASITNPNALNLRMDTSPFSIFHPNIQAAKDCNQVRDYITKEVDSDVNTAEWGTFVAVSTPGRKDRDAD
Description: as §1

Row | Sequence | uncleaved DNA left (log2) [1] | uncleaved DNA left (log2) [2] | uncleaved DNA left (log2) [3] | uncleaved DNA left (log2) [4] | uncleaved DNA left (log2) [5] | uncleaved DNA left (log2) [6] | uncleaved DNA left (log2) [7] | uncleaved DNA left (log2) [8] | uncleaved DNA left (log2) [9] | uncleaved DNA left (log2) [10]
1 | CTTGCGG | -0.00558 | -0.0019 | 0.354 | 1.34 | -0.0782 | 1.48 | 0.117 | 0.127 | -0.137 | 0.0377
2 | GAGAAGA | 0.0561 | 0.0328 | 0.336 | 0.724 | 0.0868 | 0.229 | 0.0705 | 0.0734 | 0.087 | 0.146
3 | TGATCAA | 0.142 | 0.188 | 0.735 | 1.27 | 0.0924 | 1.51 | 0.11 | 0.0593 | 0.0921 | 0.215
4 | GTATAGG | 0.102 | 0.0389 | 0.423 | 1.21 | 0.212 | 1.44 | 0.179 | 0.167 | 0.0467 | 0.0957
5 | TTCGCAC | -0.00946 | -0.105 | -0.231 | -0.497 | -0.169 | -1.11 | -0.112 | -0.0964 | -0.0344 | 0.0561
6 | GAGAAAC | 0.00707 | 0.0821 | 0.335 | 0.951 | -0.000296 | 1.21 | 0.0535 | 0.022 | 0.0808 | 0.14
7 | TCCTTCA | -0.228 | -0.0811 | -0.0544 | -1.04 | -0.0189 | -0.473 | -0.23 | -0.099 | -0.0322 | 0.0955
8 | GTTCGTC | -0.0315 | 0.00885 | 0.354 | 0.773 | -0.0168 | 1.25 | 0.0726 | 0.00394 | 0.0153 | 0.0658
9 | GATGGCG | -0.0213 | -0.0666 | -0.519 | 0.909 | 0.117 | 0.0317 | 0.129 | -0.145 | 0.0239 | -0.155
10 | TCTCCGA | 0.091 | -0.0599 | -0.0254 | 0.155 | -0.0168 | 0.0118 | 0.0649 | 0.0257 | -0.094 | 0.0179
11 | ACGGTGA | -0.0173 | -0.029 | -0.309 | -0.418 | -0.105 | -0.671 | -0.0174 | -0.12 | -0.0965 | -0.175
12 | ACGCTTC | -0.0696 | 0.0608 | -0.169 | -0.267 | -0.0131 | -0.768 | 0.0452 | -0.236 | -0.187 | -0.04
13 | AATGACT | 0.0938 | 0.0064 | 0.0908 | -0.596 | 0.0312 | 0.689 | -0.011 | 0.0502 | 0.0266 | 0.156
14 | TCTGAAA | 0.000394 | 0.0844 | 0.157 | 0.26 | 0.13 | -0.0805 | 0.116 | 0.0776 | -0.0293 | 0.0795
15 | TGCGCGG | 0.0501 | 0.0953 | 0.268 | 0.911 | 0.132 | 1.7 | 0.0685 | 0.157 | -0.0555 | 0.0314
16 | ACTCTGG | 0.0785 | -0.0792 | -0.591 | -0.674 | -0.15 | -1.04 | 0.165 | 0.068 | -0.012 | -0.145
17 | AATCGTC | 0.0292 | -0.14 | -0.00625 | -0.507 | -0.0355 | -1.03 | -0.0517 | -0.0683 | -0.0683 | -0.000193
18 | CCAAGCG | -0.01 | -0.141 | -0.665 | -0.434 | -0.15 | -1.03 | -0.0998 | -0.197 | -0.148 | -0.212
19 | GTAGGCT | 0.157 | 0.121 | 0.306 | 0.778 | 0.0479 | 1.3 | 0.151 | 0.137 | 0.159 | 0.159
20 | ATGATGA | 0.0946 | -0.0466 | 0.109 | 0.217 | 0.133 | -0.44 | 0.129 | 0.0557 | 0.034 | -0.0512
21 | ACCATGG | 0.0282 | -0.0162 | -0.715 | -0.381 | -0.0403 | -1.16 | 0.2 | -0.0252 | 0.0412 | -0.0288
22 | GCAAATG | -0.0404 | -0.0542 | -0.282 | 0.0566 | 0.12 | -0.52 | 0.109 | 0.0779 | -0.0789 | -0.0224
23 | ATGACGC | 0.0373 | 0.0299 | -0.0728 | -0.104 | 0.126 | -0.847 | 0.0574 | -0.123 | 0.0249 | 0.0566
24 | TTTCGCC | 0.0995 | -0.00633 | -0.0694 | -0.489 | 0.0777 | -0.88 | 0.0198 | -0.101 | 0.00286 | 0.0411
25 | GCGTTCG | 0.0966 | 0.028 | -0.56 | -0.473 | -0.0537 | -0.713 | 0.124 | 0.119 | -0.0113 | 0.0492
26 | AGCTCAT | 0.0366 | 0.0596 | 0.21 | 0.151 | 0.076 | 0.429 | -0.865 | -0.0334 | 0.0676 | 0.117
27 | CCCACTC | -0.0194 | -0.0619 | 0.14 | -0.62 | 0.0153 | -0.506 | 0.035 | -0.0552 | 0.00989 | 0.0819
28 | CTGTTGG | 0.0517 | 0.0731 | -0.415 | -0.383 | 0.0269 | -1.11 | 0.111 | 0.0499 | -0.109 | -0.162
29 | AGGCGTT | -0.000987 | -0.00985 | -0.0888 | -0.0476 | -0.0587 | 0.0931 | -0.104 | -0.0665 | -0.0113 | -0.0779
